Measurements published in the supplement of paper PMC7826260.
This is one part of the list. Viral Rep nickase domains cut single-stranded DNA in vitro for 1 h at 37 °C with 3 µM enzyme; only the middle of the 90-letter strands is printed. The score is log2 (uncut reads / reads without enzyme); more negative means more cut, near 0 not cut, and no call is made. Shares of all reads are compared; values above 0 arise when much of the pool is cut.

These sequences were tested on T1, Rep nickase domain of tomato golden mosaic virus (assay: uncleaved DNA left, log2 of reads against the no-enzyme library (log2 ratio); higher = less cleavage (more negative = more Rep cleavage of the k-mer); sequences stand for … in CTCGTCCG…ACCGGAGA).
T1 sequence (residues 1-124, tag not shown): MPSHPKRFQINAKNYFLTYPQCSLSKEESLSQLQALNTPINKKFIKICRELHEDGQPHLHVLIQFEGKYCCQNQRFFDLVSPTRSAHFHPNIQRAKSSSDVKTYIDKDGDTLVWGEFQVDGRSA
Experimental: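 A pool of 90-nt single-stranded DNAs with seven random bases just before the constant AC of the nick site (name = the seven bases) was cut by 3 µM recombinant His6-SUMO-tagged Rep nickase domain (300 nM DNA, 50 mM HEPES pH 8.0, 50 mM NaCl, 1 mM MnCl2, 1 h, 37 °C, three replicates). Uncut DNA was amplified and sequenced.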

Sequence | uncleaved DNA left (log2)
CGGGCCG | 0.0592
CGGTCTG | 0.0069
GCCGTTA | -0.101
ATGCCTA | -0.14
TGACTAT | -0.0303
AATAAGG | 0.216
CAGAATT | -0.144
CGGGAAG | -0.131
AATTTAG | 0.0105
TCAACAA | 0.0343
CCGAGGC | 0.00409
TCTTGCG | -0.0679
ACCAATA | 0.0974
GAAGCGT | -0.0299
GTCAGTC | 0.0697
AGTCGAA | -0.0644
CCTATAA | 0.0912
GTCACAT | 0.0882
CCCACCA | -0.147
AATAATC | 0.0744

Sequence | uncleaved DNA left (log2)
ATATGTT | -2.15
TATGCGA | -0.127
GAACTTA | -0.12
TATACGA | 0.00832
TAAAGTG | -0.0443
TTAAATT | -0.0977
GTTGTGC | 0.0421
CTACGAT | 0.052
TATACAC | 0.055
CTCCGGG | 0.0403
CAAATTT | -2.88
AGACTCG | 0.08
CATACAC | -0.0731
ATTCAAT | 0.0319
TTAGCAC | -0.0195
ACCCCCC | 0.124
TATTACC | -2.94
TAAGACT | -0.0105
GTCTTCC | -0.0728
GAGCTCT | 0.0584
